Measured values: paper PMC4336329 (PLoS ONE, 2015)
Among all 310,000 compounds or so, about 14,000 (4.5%) showed an effect of 50% or more. The effect is printed as a negative number. Some of the results follow.

What follows are molecules tested against human ether-à-go-go-related gene (hERG) potassium channel (human, UniProt Q12809) (assay: primary screen, population patch clamp on CHO cells stably expressing hERG).
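Further: peak tail current of the secondary pulse compared with the same well before compound.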

human ether-à-go-go-related gene (hERG) potassium channel, sequence (Q12809 whole entry, looked up): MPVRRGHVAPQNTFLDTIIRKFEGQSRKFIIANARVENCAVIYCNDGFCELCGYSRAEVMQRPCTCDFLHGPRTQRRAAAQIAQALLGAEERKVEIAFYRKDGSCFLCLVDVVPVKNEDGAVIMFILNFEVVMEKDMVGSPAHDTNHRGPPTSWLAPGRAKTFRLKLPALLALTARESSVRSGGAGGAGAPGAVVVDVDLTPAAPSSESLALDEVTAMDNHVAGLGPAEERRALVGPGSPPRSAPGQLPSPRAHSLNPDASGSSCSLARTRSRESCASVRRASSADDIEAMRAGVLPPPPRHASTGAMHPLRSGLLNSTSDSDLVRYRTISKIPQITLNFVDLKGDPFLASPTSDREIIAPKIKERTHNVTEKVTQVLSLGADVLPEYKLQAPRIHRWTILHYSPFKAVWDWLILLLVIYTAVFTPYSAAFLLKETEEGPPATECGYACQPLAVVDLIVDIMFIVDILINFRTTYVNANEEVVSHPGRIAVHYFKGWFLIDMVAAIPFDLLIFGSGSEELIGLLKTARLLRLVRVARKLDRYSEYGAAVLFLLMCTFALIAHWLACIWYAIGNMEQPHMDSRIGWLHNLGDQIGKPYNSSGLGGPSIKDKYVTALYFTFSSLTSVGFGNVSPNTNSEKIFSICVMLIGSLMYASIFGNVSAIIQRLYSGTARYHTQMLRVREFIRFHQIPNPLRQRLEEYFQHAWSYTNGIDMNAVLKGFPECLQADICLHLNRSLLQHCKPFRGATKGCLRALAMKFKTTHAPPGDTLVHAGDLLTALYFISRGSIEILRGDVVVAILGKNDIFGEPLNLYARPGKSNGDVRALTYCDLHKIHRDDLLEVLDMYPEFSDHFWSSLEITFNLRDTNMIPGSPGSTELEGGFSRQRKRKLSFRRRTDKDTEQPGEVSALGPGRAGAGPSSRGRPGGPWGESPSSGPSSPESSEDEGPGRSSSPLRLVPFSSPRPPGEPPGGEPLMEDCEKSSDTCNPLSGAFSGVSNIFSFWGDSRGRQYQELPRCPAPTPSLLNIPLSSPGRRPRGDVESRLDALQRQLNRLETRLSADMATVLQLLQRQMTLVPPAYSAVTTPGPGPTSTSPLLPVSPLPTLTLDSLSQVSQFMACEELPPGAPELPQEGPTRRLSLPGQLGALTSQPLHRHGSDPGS

| SMILES | hERG current change (%, negative = inhibition) at 10uM |
| --- | --- |
| Cc1ccc(-c2cccc(NC(=O)C3C(C(=O)O)[C@@H]4C=C[C@H]3C4)c2)o1 (some centres unmarked) | -28% |
| Cc1cc(C(=O)NC2CC(C)(C)Cc3c2cnn3-c2ccc(F)cc2)nn1C (centres unmarked) | -14.8% |
| CC(=O)Nc1ccc(Nc2cc(C)nc3c(-c4ccc(Cl)cc4)cnn23)cc1 | 11% |
| CCCCNC(=O)C1CCN(S(=O)(=O)N2CCCCCC2)CC1 | -20.5% |
| CCOC(=O)CNS(=O)(=O)c1ccc(S(=O)(=O)NC2CC2)cc1 | 17% |
| c1ccc(CSc2nnc3c4ccccc4c4ccccc4c3n2)cc1 | 16.7% |
| COc1ccc(-n2cnc3cc(NC(=O)c4ccco4)ccc32)cc1 | -36% |
| COCCN(C(=O)COC(=O)c1ccco1)c1c(N)n(Cc2ccccc2)c(=O)[nH]c1=O | -12.5% |
| COc1cc2c(cc1OC)C(c1cc3cc(OC)c(OC)cc3[nH]c1=O)N(C(=O)C1CC1)CC2 (centres unmarked) | 3.99% |
| CC(=O)Nc1ccc(N/C=C/C(=O)c2ccc(Cl)cc2)cc1 | 16.6% |
| OC(c1ccc(F)cc1)(c1ccc(F)cc1)[C@@H]1CCCN1 | 7.57% |
| O=C(CCSCc1ccccc1F)NCc1cccs1 | -7.78% |
| Cc1ccc(-c2nc3cnccn3c2Nc2ccc3c(c2)OCO3)o1 | -52.7% |
| COCCn1c(-c2ccsc2)nc2c1c(=O)[nH]c(=O)n2CC(C)C | -20.1% |
| N#Cc1c(CSCC(=O)O)cc(=O)n2c1[nH]c1ccccc12 | 11.9% |
| NC(=O)CSc1nnc(-c2ccccc2)c(-c2ccccc2)n1 | 4.2% |
| O=C(NCC1CC1)c1ccc2c(c1)S(=O)(=O)c1cc(Cl)ccc1C2=O | -38.9% |
| C=CCNc1cc(C(F)(F)F)nc(-c2ccccn2)n1 | -13.7% |
| Cc1nc2ccc(Cl)cc2c(-c2ccccc2)c1C(=O)[O-].N[NH3+] | 10.7% |
| O=C(CCN1C(=O)/C(=C/c2ccco2)SC1=S)Nc1ccc(C(=O)O)c(O)c1 | 25.1% |
| CC(=O)Nc1ccc(NC(=O)c2cccc(-c3cc4ccccc4oc3=O)c2)cc1 | -5% |
| COc1ccc(Cl)cc1S(=O)(=O)N1CCC(C(=O)NCCC2=CCCCC2)CC1 | -40.1% |

| SMILES | hERG current change (%, negative = inhibition) at 10uM |
| --- | --- |
| CCCCCN(C(=O)CN1CCC(Cc2ccccc2)CC1)c1c(N)n(CCCC)c(=O)[nH]c1=O | -48.1% |
| CC1CN(S(=O)(=O)N2CCOCC2)CCN1S(=O)(=O)N1CCOCC1 (centres unmarked) | 15.3% |
| Cc1cccc(C(=O)N2CCC(Cc3ccccc3)CC2)c1[N+](=O)[O-] | -21.6% |
| Cc1cccc(C(=O)OCC(=O)Nc2ccc3c(c2)OCCO3)c1O | 13.2% |
| CCCN(CCC)S(=O)(=O)c1ccc(C(=O)N2CCOCC2)cc1 | -5.49% |
| COc1ccc(C2CC(c3ccc(F)cc3)Nc3nc(N)nn32)cc1 (centres unmarked) | -27% |
| NS(=O)(=O)c1ccc(NC(=O)C2Cc3ccccc3C(=O)O2)cc1 (centres unmarked) | 0.278% |
| Cc1cc(C)c(OCC(=O)OCC(=O)NC2CCCCCCC2)c(C)c1 | -7.6% |
| C#CCNC(=O)C1=C[C@H](c2csc3ccccc23)C[C@H](OCCCCO)O1 | -13.6% |
| Cn1c(C(=O)O)cc2cc(F)ccc21 | -10.8% |
| COc1ccc(NC(=O)CN(C)C(=O)c2cn(-c3ccccc3)nc2-c2ccc(OC)cc2)cc1 | -7.66% |
| Cc1cc(F)ccc1NC(=O)C1CCCO1 (centres unmarked) | 15.2% |
| CSCCC(NC(=O)COc1ccccc1)C(=O)NC1CCC(C)CC1 (centres unmarked) | -18.9% |
| CCOC(=O)C1CCN(C(=O)c2sccc2Cl)CC1 | 1.66% |
| COc1ccc(CC(=O)NNS(=O)(=O)c2ccc(F)cc2)cc1 | 15.1% |
| O=C(COC(=O)CNC(=O)c1ccc(Cl)c([N+](=O)[O-])c1)NNC(=O)c1ccccc1F | -14.6% |
| Cc1cc(C)c(C#N)c(Nc2cccc(Br)c2)n1 | 12.5% |
| Cc1nnc(NC(=O)CCn2cnc3ccccc3c2=O)s1 | 24.2% |
| O=C1C=C(Nc2ccccc2C(=O)O)c2ccccc2C1=O | 11.9% |
| CCOc1ccc(S(=O)(=O)NCCC(=O)N(C)CC(=O)Nc2ccc(N3CCOCC3)cc2)cc1 | -5.05% |
| Cn1c(=O)oc2cc(S(=O)(=O)N3CCCC(C(=O)NCCN4CCOCC4)C3)ccc21 (centres unmarked) | 11.3% |
| Cc1ccccc1-c1nc(CS(=O)CC(=O)N2CCC3(CC2)OCCO3)c(C)o1 (centres unmarked) | -0.566% |
